Measurements published in the RNAGym collection of RNA variant scans (doi:10.1093/nar/gkz1192).
Read counts are not given, so values of variants with three or more changes are uncertain.

B1: CPEB3 Ribozyme (parent)
chain: UAACAGGGGGCCACAGCAGAAGCGUUCACGUCGCAGCCCCUGUCAGAUUCUGGUGAAUCUGCGAAUUCUGCUGUAUAUCUC

Variants of: B1
Assay: self-cleavage, relative activity (ratio to wild type); higher = more cleavage; in vitro, sequencing
Summary of the method: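 Relative activity was defined as the cleaved/total read fraction for a variant divided by the same fraction for the unmutated ribozyme. CPEB3 self-cleaving ribozyme libraries were made by rounds of error-prone PCR, barcoded, and transcribed in vitro with T7 RNA polymerase for 5 hours at 37°C, and cleavage ran through transcription plus a 15 min DNase I step before EDTA. Illumina sequencing of template-switched reverse transcripts gave the reads, and DNA sequencing mapped the barcodes. Averages come from three batches, using variants with at least 5 reads.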

Variant	self-cleavage
U69C A75G U78A	0.52
U66C U69C G73A	0.45
C68U U72C A75G	0.28
U69A U72C U76C	0.61
U66C U72C U80C	0.41
U67C C68A U80A	0.18
U72C U74C U80C	1.27
U69A U76C U80C	0.88
U69C U74C U78A	0.91
U69C U74C U78C	0.61
U66C U69A U72C U78C	0.23
U67C U72C A75U	0.4
U72C G73A U78A	1.29
U66C U69C U72C	0.32
C68A A75G U78C	0.26
U69C U74A U78C	0.74
U66C U69C U76C	0.41
U66C U69A G70A U78C	0.15
U67C G73A U80C	0.58
U69C U76C A77U	0.88
U69A G73U U78C C79U U80C	1.01
U72C A75G U78C	1.14
U69C G70A C71U	0.18
U72C U78A C79A	1.3
U66C U72C U74C	0.76
U69A G73A A75U U78C	1.11

Variant	self-cleavage
U66C U67C U72C	0.39
U72C U78C U80A	0.94
U76C A77G U80A	1.04
U67C U72A U78C	0.15
U67C U74A U76G	0.44
U66C U69A U76C	0.46
U66C U69C U78A	0.21
U67C C68A U69C	0.29
U67C U72C A77U	0.27
U67A U74A U78C	0.8
C68A U69C U78C	0.35
G70U U72G U80G	0.35
U67A U76A U80A	0.72
U69A C71A U72C	0.29
U66C U67C U78C	0.26
G73U U78C U80C	1.29
U69C A75G U80G	0.55
U69C A75G U80C	0.44
U69C U76C C81G	0.73
C68G U69C U76G	0.57
U66C U67C A75G	0.19
U67A C68U A77C	0.49
U67C A75U U76C	0.37
U67C G70A U80C	0.6
U72C A77G U78A	1.2
C68A A75G U76A	0.57

Variant	self-cleavage
U72C A77U U80C	1.35
G70C A77U U78C U80C	0.19
U76A U78C U80C	0.7
U72A U78A U80C	1.13
U72C A75U U78C	1.13
U67C C68A U74A	0.27
U67C C68A U74C	0.4
U69A C71G U72C U78A	0.12
U66A U72G U74A	0.69
U69A A75C U76C	0.83
U67C U69A A77U	0.46
U67C C68G C81U	0.19
U67C U69A U74C	0.42
C71G U72C U76C	0.4
U66C U69C U76A U78C	0.26
U66C U72C U76C	0.47
U67C C68U U72C	0.31
U66C U69A A77G	0.45
U66C A77G U80C	0.39
U72C A75G U78A U80C	1.04
U66C U69C U72C U80C	0.49
U66A U69C U76C	0.21
A75U U76A U80A	1.2
U67C U74C A75G	0.24
